Experimental data reported in paper PMC4336329 (PLoS ONE, 2015).
Hit rate of the full screen: of about 310,000 compounds, about 14,000 (4.5%) showed an effect of 50% or more. Effects have a minus sign here. This is one part of the list.

Each molecule was assayed against human ether-à-go-go-related gene (hERG) potassium channel (human, UniProt Q12809) (assay: primary screen, population patch clamp on CHO cells stably expressing hERG).
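Further: peak tail current of the secondary pulse compared with the same well before compound.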

Sequence of human ether-à-go-go-related gene (hERG) potassium channel (Q12809 whole entry, looked up): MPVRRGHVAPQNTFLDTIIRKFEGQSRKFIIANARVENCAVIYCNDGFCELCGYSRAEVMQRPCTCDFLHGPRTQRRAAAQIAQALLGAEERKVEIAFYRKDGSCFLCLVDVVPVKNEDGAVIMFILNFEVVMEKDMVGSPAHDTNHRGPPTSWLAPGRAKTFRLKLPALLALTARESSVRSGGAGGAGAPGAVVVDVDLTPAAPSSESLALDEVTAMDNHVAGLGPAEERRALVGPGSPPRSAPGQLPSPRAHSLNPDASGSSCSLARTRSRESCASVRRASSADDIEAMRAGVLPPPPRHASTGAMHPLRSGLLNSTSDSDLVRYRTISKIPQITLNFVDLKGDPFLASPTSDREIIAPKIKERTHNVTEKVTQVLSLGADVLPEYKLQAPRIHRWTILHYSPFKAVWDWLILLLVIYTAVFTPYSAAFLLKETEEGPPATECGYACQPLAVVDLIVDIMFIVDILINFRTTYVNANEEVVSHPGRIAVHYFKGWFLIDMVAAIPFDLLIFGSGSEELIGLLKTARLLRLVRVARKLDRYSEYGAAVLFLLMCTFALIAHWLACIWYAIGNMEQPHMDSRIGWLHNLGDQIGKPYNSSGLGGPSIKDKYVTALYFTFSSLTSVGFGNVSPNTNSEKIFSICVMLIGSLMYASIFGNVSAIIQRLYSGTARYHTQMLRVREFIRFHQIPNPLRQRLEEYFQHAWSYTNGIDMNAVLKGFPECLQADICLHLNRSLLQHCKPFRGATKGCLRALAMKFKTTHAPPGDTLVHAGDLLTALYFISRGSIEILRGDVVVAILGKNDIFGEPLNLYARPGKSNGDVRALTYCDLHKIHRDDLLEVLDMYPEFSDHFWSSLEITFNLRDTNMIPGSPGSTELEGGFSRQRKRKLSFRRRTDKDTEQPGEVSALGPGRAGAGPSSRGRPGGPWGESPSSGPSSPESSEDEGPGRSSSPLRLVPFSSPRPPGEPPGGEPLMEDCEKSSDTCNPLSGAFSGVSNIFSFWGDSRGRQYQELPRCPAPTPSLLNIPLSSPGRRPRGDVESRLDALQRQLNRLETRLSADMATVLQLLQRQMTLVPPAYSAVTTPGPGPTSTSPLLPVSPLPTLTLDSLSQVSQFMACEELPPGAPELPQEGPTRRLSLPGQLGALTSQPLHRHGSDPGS

Compound	hERG current change (%, negative = inhibition) at 10uM
Cc1nn(-c2ccccc2)c(C)c1C(=O)OCC(=O)Nc1ccccc1	-7.85%
Cc1ccc(S(=O)(=O)N2CCCC2)cc1C(=O)NCc1ccccn1	5.54%
Cn1c(CSc2ncccn2)nnc1SCC(=O)N1CCCCCC1	42.2%
CC(CN1C(C)CCCC1C)OC(=O)c1ccc(Cl)cc1 (centres unmarked)	-44.8%
CC(C)(C)c1nnc2sc(SCCN3C(=O)c4ccccc4C3=O)nn2c1=O	-1.17%
Cc1ccn2cc(CNS(=O)(=O)c3ccc4c(c3)OCCO4)nc2c1	-3.84%
CCOc1ccc(S(=O)(=O)Nc2ccccc2C(=O)N(C)C2CCN(C)CC2)cc1	3.89%
CC[C@@]1(O)C(=O)OCc2c1cc1n(c2=O)Cc2cc3ccccc3nc2-1	7.07%
CCc1nnc(NC(=O)CSc2nnc(CSc3nc(C)cc(C)n3)n2C)s1	7.01%
Cc1nn2c(C)c(C(=O)Nc3ccccc3)cnc2c1C#N	10.7%
O=C(NCc1ccccn1)c1c(O)c2c([nH]c1=O)CCCC2	10.5%
CC(/C=C/c1ccc2c(c1)OCO2)=N/NC(=O)c1ccncc1	-11.1%
O=C(Nc1ccc2c(c1)OCO2)c1ccc(=O)[nH]n1	-4.18%
CCOC(=O)c1[nH]c2ccc(OC)cc2c1NC(=O)CCN1CCSCC1	-5.8%
CCOc1cc(/C=N/NC(=O)c2cccs2)ccc1OC(=O)N1CCOCC1	18.5%
O=C(COc1cccnc1[N+](=O)[O-])Nc1cc(S(=O)(=O)N2CCCCC2)ccc1Cl	4.68%
CC(C)(C)OC(=O)N1CCC(CC2CC(c3ccc(Cl)cc3)=NO2)(C(=O)NCC2CCCCC2)CC1 (centres unmarked)	-19.5%
CCCCn1c(N)c(N(CCC(C)C)C(=O)c2ccc(N3CCCC3=O)cc2)c(=O)[nH]c1=O	0.521%
Cc1nonc1NC(=O)CSc1nc2ccccc2o1	-36.8%
CCCc1cc(=O)[nH]c(SCCOC(=O)c2ccccc2)n1	-11.4%
COC(=O)c1ccc(NCC(=O)Nc2cc(C)cc(C)c2)cc1	0.766%
COc1ccc(C(=O)C2CCN(C(=O)c3ccc(C)cc3)CC2)cc1	-66.3%

Compound	hERG current change (%, negative = inhibition) at 10uM
COC(=O)c1scc(C)c1NC(=O)CC1NCCNC1=O (centres unmarked)	11.9%
CCCN(CCC)C(=O)c1cc(-c2ccc3c(c2)OCO3)nc2ccccc12	-44.1%
COc1ccc(C(=O)N2CCN(c3nc4ccccc4o3)CC2)cc1OC	-40.7%
COc1ccc(Br)cc1C1CC(=O)N2CN(C)CSC2=C1C#N (centres unmarked)	12.2%
O=C1CCCC(=O)C1Sc1ccc(Cl)cc1	11.2%
Cc1c(NC(=O)C2CC(c3c(F)cccc3Cl)=NO2)c(=O)n(-c2ccccc2)n1C (centres unmarked)	14.7%
NC(=O)c1ccccc1NC(=O)Cc1cccs1	-0.237%
Cc1cc(NC(=O)c2ccc(C)s2)n(-c2nc3ccccc3[nH]2)n1	10.3%
O=C(c1cc2ccccc2cc1O)N1CCN(c2ccccn2)CC1	-4.26%
Cc1cccc(C(=O)N(Cc2ccco2)c2c(N)n(Cc3ccccc3)c(=O)[nH]c2=O)c1	-1.64%
Cc1cc(OCC(=O)NNC(=O)c2ccncc2)ccc1C(C)C	-12.2%
Cc1cc(C)n(-c2c(C)[nH]c3ccccc23)n1	7.34%
COC(=O)CCC(=O)OC1(C)C(=O)C2=CN(CCc3c[nH]c4ccccc34)C(c3ccc(OC)cc3)=CC2=C(Br)C1=O (centres unmarked)	-1.22%
CC[C@H](C)Cc1cn([C@@H](CCCN=C(NC(=O)OC(C)(C)C)NC(=O)OC(C)(C)C)C(=O)NCCCCCCCCCCC(=O)N2CCN(C(=O)OC(C)(C)C)CC2)nn1	4.2%
O=C(Nc1nc(-c2ccccn2)cs1)C1COc2ccccc2O1 (centres unmarked)	-22.4%
COc1ccc(CNS(=O)(=O)c2ccc(S(=O)(=O)N3CCCCC3)cc2)cc1	7.34%
COc1ccc(OC)c(/C=N/NC2=NS(=O)(=O)c3ccccc32)c1	1.79%
OCC[C@@H]1C[C@@H](O)[C@H](O)[C@]2(CCc3ccccc3O2)O1	8.06%
NC(=O)C1(N2CCCCC2)CCN(S(=O)(=O)c2cc(Cl)sc2Cl)CC1	-28.8%
O=C(O)CSCC(=O)N1CCCCC1	26.3%
c1ccc(-c2nc(Sc3ncnc4c3cnn4-c3ccccc3)n[nH]2)cc1	3.89%
COc1ccc(CNC(=O)c2cnc(C)cn2)c(OC)c1	-11%
